Data as given in paper PMC4336329 (PLoS ONE, 2015).
The whole screen tested about 310,000 compounds, of which about 14,000 (4.5%) showed an effect of 50% or more. The effect is printed as a negative number. The list shows a part of the results.

Biological target: human ether-à-go-go-related gene (hERG) potassium channel (human, UniProt Q12809)
Assay: primary screen, population patch clamp on CHO cells stably expressing hERG
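Further: peak tail current of the secondary pulse compared with the same well before compound.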

Chain of human ether-à-go-go-related gene (hERG) potassium channel (Q12809 whole entry, looked up): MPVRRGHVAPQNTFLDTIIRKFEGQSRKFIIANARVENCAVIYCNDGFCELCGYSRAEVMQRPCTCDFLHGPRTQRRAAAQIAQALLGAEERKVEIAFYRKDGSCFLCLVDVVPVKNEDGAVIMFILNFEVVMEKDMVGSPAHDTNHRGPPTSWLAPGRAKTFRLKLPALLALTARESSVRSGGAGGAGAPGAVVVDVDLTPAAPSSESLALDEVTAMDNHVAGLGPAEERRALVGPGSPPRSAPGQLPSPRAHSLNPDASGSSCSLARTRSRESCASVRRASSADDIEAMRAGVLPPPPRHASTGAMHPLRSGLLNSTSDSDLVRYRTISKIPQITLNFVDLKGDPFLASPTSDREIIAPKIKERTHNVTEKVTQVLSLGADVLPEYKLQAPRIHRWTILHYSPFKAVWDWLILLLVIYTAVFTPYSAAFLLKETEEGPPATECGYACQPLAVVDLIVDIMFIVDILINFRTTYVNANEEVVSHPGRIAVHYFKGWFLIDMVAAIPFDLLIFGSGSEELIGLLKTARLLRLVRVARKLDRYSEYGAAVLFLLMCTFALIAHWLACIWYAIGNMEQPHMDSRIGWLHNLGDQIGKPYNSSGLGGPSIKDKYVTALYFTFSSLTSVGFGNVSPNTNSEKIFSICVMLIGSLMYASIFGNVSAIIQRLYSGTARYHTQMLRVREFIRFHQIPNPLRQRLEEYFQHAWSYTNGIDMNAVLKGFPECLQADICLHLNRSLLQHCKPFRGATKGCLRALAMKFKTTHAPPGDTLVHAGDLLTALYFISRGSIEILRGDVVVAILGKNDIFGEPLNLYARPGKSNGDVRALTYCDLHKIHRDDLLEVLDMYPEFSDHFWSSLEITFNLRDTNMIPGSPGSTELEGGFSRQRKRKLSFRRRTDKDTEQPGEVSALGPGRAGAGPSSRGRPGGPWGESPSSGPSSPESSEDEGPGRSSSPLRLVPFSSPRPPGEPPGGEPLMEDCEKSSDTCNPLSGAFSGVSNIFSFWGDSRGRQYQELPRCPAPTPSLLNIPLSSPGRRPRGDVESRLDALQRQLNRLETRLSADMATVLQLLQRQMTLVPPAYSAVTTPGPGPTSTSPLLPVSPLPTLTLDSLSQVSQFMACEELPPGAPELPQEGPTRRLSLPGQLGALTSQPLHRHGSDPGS

| SMILES | hERG current change (%, negative = inhibition) at 10uM [%] |
| --- | --- |
| CCOCCCNC(=O)Cn1cnc2sc(C)c(S(=O)(=O)N3CCN(c4ncccn4)CC3)c2c1=O | 10.4 |
| O=C(NC1CCCC1)c1cc2c(=O)n3ccccc3nc2s1 | -9.33 |
| CCN(CC)C(=O)Cn1c(=O)n(CCCC(=O)NCc2ccccc2)c(=O)c2sccc21 | 2.45 |
| Cc1cc(NC(=O)OC2CCCCC2)ccc1[N+](=O)[O-] | 16.9 |
| O=C(NCCCNC(=O)c1ccccc1Br)c1ccccc1Br | 26 |
| CCCCOc1ccc(C(=O)NNC(=O)C2C3C=CC(C3)C2C(=O)O)cc1 (stereo not shown) | 3.68 |
| O=C(CCn1c(=O)[nH]c2ccccc2c1=O)NCCSCc1ccccc1 | 3.64 |
| Cc1c(NC(=O)Nc2ccc(Cl)cc2)c(=O)n(-c2ccccc2)n1C | 1.41 |
| COc1ccc(C2=NN(C(=O)CSc3nnc(-c4ccccc4F)o3)C(c3ccco3)C2)cc1 (stereo not shown) | -3.64 |
| Cc1nnsc1C(=O)N1CCC(CO)(Cc2ccccc2Cl)CC1 | -3.85 |
| CCc1ccc(C2CC(c3ccc(C)cc3)Nc3nc(N)nn32)cc1 (stereo not shown) | 14.4 |
| COc1cc(OC)cc(C(=O)NCC(=O)N2CCC(C)CC2)c1 | 17 |
| COC(=O)c1cccc(NC(=O)CN2CCN(Cc3ccccc3)CC2)c1 | -16 |
| CCOC(=O)Cc1c(C)nc2c(-c3cccc(Br)c3)c[nH]n2c1=O | -12.9 |
| CC1=CCC2C(=O)N(c3cccc(C(=O)N(C)C4CCCCC4)c3)C(=O)C2C1 (stereo not shown) | -16.3 |
| CC(C)CCNC(=O)COC(=O)/C=C/c1ccc2ccccc2n1 | 11.3 |
| CC1(C)C(Cl)C(=O)C(C(=O)c2ccccc2)C(=O)C1Cl (stereo not shown) | 18.6 |
| CCCC(=O)c1c[nH]c(C(=O)NCc2ccco2)c1 | 7.74 |
| Cc1ccc(C)n1-c1nc(=S)[nH][nH]1 | 13.2 |
| COc1ccc(CN2CCCC(C(=O)c3ccc(SC)cc3)C2)cc1Cn1cccn1 (stereo not shown) | -80.3 |
| CCOc1ccc(N=CC2=C(O)CC(c3ccco3)CC2=O)cc1 (stereo not shown) | -14 |
| CC1CC(C)CN(CCOc2ccc(Br)cc2)C1.O=C(O)C(=O)O (stereo not shown) | -60.3 |
| COC(=O)C1=C(C)NC=C([N+](=O)[O-])C1c1ccc(OC)cc1 (stereo not shown) | -11.6 |
| CCC(=O)Nc1ccc(-c2cc3ccccc3oc2=O)cc1 | 12 |
| COc1ccc(C(C)=O)cc1CN1C(=O)NC2(CCCC2)C1=O | 23.9 |
